# Source: PubChem BioAssay AID1345083 (National Center for Advancing Translational Sciences (NCATS), 2018)
# Hit rate of the full screen: of about 94,000 compounds, about 6,200 (6.6%) were called active. The shares of active, inactive and inconclusive entries below differ from those in the screen. The call rests on the fitted dose curve; in most records, active means well fitted inhibition curve with a large enough effect; inconclusive means small, poorly fitted or top-dose-only effect; inactive means flat fitted curve, though single readings scatter. Where the call is inconclusive, the potency comes from a doubtful curve fit.
# Assay: Cytotoxic Profiling in HEK 293 Cell Line of Diverse Libraries Using Quantitative High-Throughput Screening; further: nearly all actives have a fitted effect of over 60% in size
# Details: HEK 293 viability, ATP luminescence (CellTiter-Glo), 48-72 h; activity change, negative = cytotoxicity: at 115 µM (top of the series) unless noted; series mostly up to 115 µM
# Outline: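 Luminescence from cellular ATP, measured with CellTiter-Glo, indicates HEK 293 viability. Cells plated at 250 cells/well are treated with compound for 48 or 72 hr at 37 degree Celsius before reagent addition.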
# On the % scale 0 is the no-effect control and ±100 the full control effect; potency means the concentration at half of the fitted maximal effect; tags describe the fitted curve by direction and shape.
Structure (SMILES),"activity change, negative = cytotoxicity",Potency,outcome
COc1ccccc1Nc1ccnc(N2CCC(NC(=O)C3CCCC3)CC2)n1,inactive: -26.9%,–,–
CC(C)(C)NC(=O)N1CC(c2noc(C3CCCN3CC3CC3)n2)C1 (centres undefined),inactive: -21.9%,–,–
N#Cc1cccc(CN2CC[C@@H]3OCC(=O)N(Cc4ccccc4)[C@H]3CC2)c1,–,active: 100 µM,–
Cn1cccc1CN1CCC2(CC1)CC(=O)c1ccccc1O2,–,"inconclusive: 126 µM [inhibitor, partial curve, poor fit]",–
Cc1ccccc1Oc1c(CCC(=O)N2CCSCC2)c(C)nn1-c1ccc(F)cc1,–,"inconclusive: 31.6 µM [inhibitor, partial curve, poor fit]",–
O=C(CCn1ccc2ccc(Cl)cc21)Nc1ccc2c(c1)C(=O)N1CCC[C@H]1C(=O)N2,–,"inconclusive: 89.1 µM [inhibitor, single point]",–
O=C(Cc1ccsc1)N1CCCN(c2cc(-c3ccc(Cl)cc3)[nH]n2)CC1,–,"inconclusive: 50.1 µM [inhibitor, partial curve, poor fit]",–
COc1ccc(CC(=O)NC2CCCN(c3cc(-c4ccc(F)cc4)[nH]n3)C2)cc1OC (centres undefined),–,active: 44.7 µM,–
CCC1(O)CCCN(C(=O)c2cc(COc3ccccc3OC)[nH]n2)C1 (centres undefined),inactive: -3.82%,–,–
COCCNc1c(-c2noc(C)c2C(=O)Nc2ccc(OC)nc2)cnn1C,–,"inconclusive: 31.6 µM [inhibitor, full curve]",–
O=C(NCc1ccc(Cl)cc1)C1CCN(c2cc(C(F)(F)F)ncn2)CC1,–,"inconclusive: 12.6 µM [inhibitor, full curve, poor fit]",–
COCCN1C(=O)CCC2(CNC(=O)Cc3c(C)noc3C)CCCC=C12 (centres undefined),–,–,inactive
CNC(=O)[C@H]1C[C@]2(CCCCN(C)C2=O)N(C(=O)c2ccco2)[C@H]1c1ccco1,inactive: -3.23%,–,–
COc1ccccc1-c1cc(-c2cccnc2)c2cncn2c1,–,"inconclusive: 56.2 µM [inhibitor, partial curve, poor fit]",–
Cc1nccn1-c1ccc(NC(=O)C2CCCN(c3ncccc3C#N)C2)cc1 (centres undefined),–,active: 39.8 µM,–
CN(C)Cc1cc(C[C@@H]2C[C@H](NC(=O)Nc3ccccc3)C2(C)C)no1,inactive: -13.3% [at 172 µM],–,–
Cc1ccc(-c2cn3c(n2)CO[C@@H](CNC2CCCC2)C3)cc1,–,active: 100 µM,–
COc1ccc(CN2C(=O)CO[C@H]3CN(C(=O)COc4ccccc4)C[C@H]32)cc1,inactive: 3.58% [at 172 µM],–,–
O=C(NC1CCN(c2cc(-c3ccc(Cl)cc3)[nH]n2)C1)c1ccc(F)cc1F (centres undefined),–,active: 50.1 µM,–
CCOc1ccccc1CN1CCCCCCNC(=O)[C@@H]2CCC[C@@H]21,–,"inconclusive: 79.4 µM [inhibitor, partial curve, poor fit]",–
COc1cccc(-c2ccccc2NC(=O)C2CCN(Cc3cc(F)ccc3F)CC2)c1,–,active: 22.4 µM,–
Cn1c(Cn2ccnc2)nnc1C1CCCN(C(=O)Cc2ccccc2F)C1 (centres undefined),inactive: 0.564%,–,–
Cc1cccnc1CC(C)NC(=O)c1csc2nc(-c3ccccc3Cl)cn12 (centres undefined),–,"inconclusive: 56.2 µM [inhibitor, partial curve, poor fit]",–

Structure (SMILES),"activity change, negative = cytotoxicity",Potency,outcome
COC1(c2ccccc2)CCN(C(=O)C2CCCN(C(=O)N(C)C)C2)CC1 (centres undefined),inactive: -3.4%,–,–
COCC1CN(C2CCC2)CC12CCN(C(=O)c1ccc(F)c(F)c1)CC2 (centres undefined),–,"inconclusive: 79.4 µM [inhibitor, partial curve, poor fit]",–
COc1cccc(-c2cc(C(=O)N3CCCC3)c3cnn(C)c3n2)c1,–,"inconclusive: 100 µM [inhibitor, partial curve]",–
O=C(CCC1CCN(S(=O)(=O)c2ccccc2)CC1)NCc1ccc(F)cc1,–,"inconclusive: 79.4 µM [inhibitor, partial curve, poor fit]",–
CCCC1CN(Cc2cccs2)C(=O)c2cccnc2O1 (centres undefined),–,"inconclusive: 89.1 µM [inhibitor, single point]",–
COc1ccc2c(c1)OC[C@@H]1CN(CCC#N)C(=O)CCN(C(=O)C3CCCC3)[C@H]21,inactive: -3.33%,–,–
Cc1nn(-c2ccccc2)c2c1C(C1CC1)N(C1CCN(C(=O)NC3CCCC3)C1)C2=O (centres undefined),–,active: 44.7 µM,–
O=C(NCc1ccc(F)cc1)N1CCCCC1c1noc(COc2ccc(F)cc2)n1 (centres undefined),–,"inconclusive: 50.1 µM [inhibitor, partial curve, poor fit]",–
O=C(NCCn1cccc1-c1nc(-c2ccc3c(c2)OCO3)no1)c1cccc(Cl)c1,–,"inconclusive: 50.1 µM [inhibitor, partial curve, poor fit]",–
CCn1c(CN(C)C)nnc1C1CCN(C(=O)c2cnn3ccccc23)CC1,–,"inconclusive: 79.4 µM [inhibitor, partial curve, poor fit]",–
COc1cccc(CN2C[C@@H](CO)[C@H](C3CCN(C(C)=O)CC3)C2)c1,inactive: -3.96%,–,–
CCN(C(=O)Cn1cccc1-c1nc(-c2ccc(OC)c(F)c2)no1)c1ccccc1,–,active: 44.7 µM,–
Cc1ccc(Nc2ccnc(N3CCC(C(=O)NCC4CCCCCC4)CC3)n2)cc1,–,"inconclusive: 20 µM [inhibitor, full curve, poor fit]",–
c1ccc2c(c1)COC1(CCNC1)CN2CC1CCCCC1 (centres undefined),–,active: 79.4 µM,–
CC(C)(C)c1ccc(C(=O)N2CCC3(CC2)N=C(c2ccccc2)NO3)cc1,–,"inconclusive: 35.5 µM [inhibitor, full curve]",–
O=C(c1cnccn1)N1CC(c2nnc(-c3ccncc3)o2)C2(CCOCC2)C1 (centres undefined),inactive: -18.2%,–,–
CCn1cnnc1CC1CCN(C(=O)c2cc(-c3ccc(C)c(C)c3)nc3ccccc23)CC1,–,"inconclusive: 44.7 µM [inhibitor, partial curve]",–
COc1cccc(C(=O)N2CCc3nc(C4CC4)nc(-c4ccc(Cl)cc4)c3C2)c1,–,"inconclusive: 56.2 µM [inhibitor, partial curve, poor fit]",–
COc1ccc(-c2nc3nccc(-c4ccsc4)n3n2)c(OC)c1,–,"inconclusive: 79.4 µM [inhibitor, single point]",–
C=CCc1ccccc1OCCN(C)Cc1cc2ccc(F)cc2[nH]c1=O,–,active: 44.7 µM,–
CN1CC(=O)N(c2ccc([N+](=O)[O-])cc2)Cc2c1ncnc2N1CCC(N2CCOCC2)CC1,inactive: -15.9%,–,–
CCCS(=O)(=O)N1CCc2c(c(CN3CCOCC3)nn2C)C1,inactive: -3.6%,–,–
O=C(c1cc(F)ccc1F)N1CCCC(n2cc(-c3nc(C4CC4)no3)nn2)C1 (centres undefined),–,"inconclusive: 31.6 µM [inhibitor, full curve, poor fit]",–

Structure (SMILES),"activity change, negative = cytotoxicity",Potency,outcome
COc1ccc(F)cc1-c1ccc(CN2CCCCC2C(=O)NCc2ccccc2F)cc1 (centres undefined),–,active: 25.1 µM,–
Cc1ccc2c(n1)OC1(CCCC1)CN(Cc1ccc3c(c1)OCO3)C2=O,–,"inconclusive: 15.8 µM [inhibitor, partial curve, poor fit]",–
CCC1Oc2ccc(NC(=O)c3ccc([N+](=O)[O-])cc3)cc2CN(C(C)CC)C1=O (centres undefined),–,active: 22.4 µM,–
O=C(c1ccc(-c2ccn[nH]2)cc1)N1CCCC(CCc2c(F)cccc2F)C1 (centres undefined),–,"inconclusive: 50.1 µM [inhibitor, partial curve, poor fit]",–
Fc1ccccc1CN1CCC[C@H]1c1nc(-c2ccnc(N3CCOCC3)c2)no1,–,active: 89.1 µM,–
O=C(Nc1ccc(Cl)cc1)N1CCN(C(=O)c2nc3cccnc3n(CCc3ccccc3)c2=O)CC1,–,"inconclusive: 50.1 µM [inhibitor, partial curve, poor fit]",–
C#CCN(C)Cc1nc(C2(O)CCN(C(=O)c3ccccc3F)CC2)cs1,inactive: -26% [at 172 µM],–,–
CN1Cc2ncnc(N3CCC(c4ccccc4)CC3)c2CN(c2ccccc2)C1=O,–,"inconclusive: 50.1 µM [inhibitor, partial curve, poor fit]",–
COc1ccccc1N1CCN(C2CCCN(Cc3nc(C(N)=O)no3)C2)CC1 (centres undefined),inactive: -12.9%,–,–
Cc1ccc(C(=O)N2CCC3(CC2)CC(c2cccc(C(F)(F)F)c2)=NO3)cc1,–,"inconclusive: 50.1 µM [inhibitor, partial curve, poor fit]",–
COCCOCc1nc(C2CCCCN2C(=O)c2ccncc2)no1 (centres undefined),inactive: 2.6%,–,–
CN1CCCN(C(=O)C2CCCO2)c2ccccc21 (centres undefined),–,"inconclusive: 89.1 µM [inhibitor, single point]",–
COc1ccccc1CN1CCCn2nc(C)c(-c3ccccc3[S+](C)(=O)[O-])c21,–,active: 44.7 µM,–
O=C1CC(c2ccccc2)N(C(=O)CNC(=O)c2ccoc2)CCCCCCN1 (centres undefined),–,"inconclusive: 79.4 µM [inhibitor, partial curve]",–
CCOC(=O)[C@@H]1[C@@H](O)C(=O)N(C)C12CCN(C(=O)OCC)CC2,–,"inconclusive: 89.1 µM [inhibitor, single point]",–
COc1ccc(C(=O)N2CC[C@H]3C(=O)NCCCCCCN(Cc4ccncc4)[C@@H]3C2)c(OC)n1,inactive: -4.96%,–,–
CC(=O)N1CCN(c2cc(-c3ccc(Cl)cc3)nc3c(C)noc23)CC1,–,"inconclusive: 70.8 µM [inhibitor, partial curve, poor fit]",–
Cc1nc([C@H]2CCN(Cc3ccc(F)c(F)c3)C[C@H]2NC(=O)C2CC2)n[nH]1,inactive: -16.3%,–,–
COCCn1c(C)cc(C(=O)N2CCCC(Cc3noc(-c4cnccn4)n3)C2)c1C (centres undefined),inactive: -26.8%,–,–
CN1CC(=O)N(CC(=O)N2CCC3(CCCN(C)C3=O)C2)C1=O (centres undefined),–,–,inactive
CN(C)c1ccc(CNC2(Cc3cc(-c4ccc(F)cc4)on3)COC2)cc1,–,"inconclusive: 89.1 µM [inhibitor, partial curve]",–
COc1ccc(CN2Cc3[nH]cnc3C[C@H]2c2nc(-c3ccccc3)no2)cc1,–,"inconclusive: 100 µM [inhibitor, partial curve, poor fit]",–
COCCN1Cc2nc(Nc3ccc(F)c(Cl)c3)ccc2OCC1=O,–,active: 100 µM,–
